# PMC10668032
# This is one part of the list. At the low end of the ranking, values are background and their order means little.
# Target: SIX1-Q177R homeodomain (UniProt Q15475)
# Experiment: universal protein binding microarray
# Conditions: Universal all-10-mer PBM (8x60K, AMADID 030236), 300 nM GST-tagged protein, Alexa Fluor 488 anti-GST; buffer, salt, pH and temperature not stated; high values mean tight binding; most listed sequences are background and not binding sites; double strand, one strand shown
row,Sequence,binding signal [E-score]
1,CGAGGTCC,-0.0846
2,GCGATTCA,-0.261
3,CGTCGCTA,-0.101
4,ATTAAGCC,-0.171
5,AGGTACAC,0.452
6,GGTATGAA,0.0694
7,GGCGGTGA,-0.108
8,AAAGACTA,-0.135
9,GTGCTGCA,0.0761
10,ACGGTCGA,-0.0471
11,AAGGTTAG,-0.115
12,AATCAAGT,-0.154
13,CATGATTC,-0.123
14,AGTCGACC,-0.14
15,CATTGTTA,-0.0929
16,AGGAGTAG,0.094
17,CAAGACCC,0.0688
18,CGAGCCAG,-0.0412
19,TAGAAGCA,-0.155
20,CTATCCAA,-0.124
21,TGCACAAA,-0.112
22,AACCGTGT,0.379

row,Sequence,binding signal [E-score]
1,TCACGAAA,-0.00904
2,GGAACGCA,-0.0668
3,GTACCGAA,-0.00781
4,AGGTTAGC,-0.0108
5,CGAATCAC,-0.108
6,ATGCCAAA,-0.304
7,AGTATTCC,-0.0478
8,CAAGATTA,-0.246
9,ATGTGTGA,0.145
10,TTTATAAA,-0.102
11,ATAGGGGC,-0.115
12,AGCACTCC,0.102
13,AGACTCGG,0.16
14,GAGCAAAA,-0.356
15,ACGCTATC,0.0345
16,CGCTTAGC,-0.19
17,ACGCACAG,0.0283
18,AAATTTTG,-0.242
19,AGAAGGGC,0.0188
20,CCTCATTC,0.0209
21,GACGGGGA,0.0462
22,ACGGGCTC,-0.06

row,Sequence,binding signal [E-score]
1,CGCAAACG,-0.176
2,ATAGCTAG,-0.0581
3,TCAGTCAA,-0.0949
4,GGGTGTTA,0.475
5,GCCACCGA,0.00267
6,CCTTCTGA,0.0361
7,CCCTGCGC,-0.152
8,CGACTATC,0.0382
9,AAGTCACC,-0.126
10,ATCCAAAA,-0.11
11,TCTGTTCA,-0.0165
12,CCAAACCA,-0.176
13,CTTGTGCC,0.114
14,GGCCACTA,0.0106
15,GTACCCGA,0.134
16,ACCAGGGG,0.0932
17,GGACTGTA,-0.199
18,CGTTTATA,-0.143
19,ACAGGCTG,-0.117
20,AGAAAGCT,-0.135
21,CCCGTCTC,0.239
22,CACTTAAG,0.107

row,Sequence,binding signal [E-score]
1,CTTATCGC,-0.106
2,ATAGGGCA,-0.2
3,CGACTGAC,-0.0817
4,GCGCTAAA,-0.101
5,GATACCGC,0.293
6,AGATGAGC,-0.219
7,GCAGGTAC,-0.0392
8,GCTGAGCA,-0.094
9,GTTATAAC,0.111
10,ATCGAGAT,-0.0963
11,AAAGGGCG,-0.0698
12,CGCAGGGC,-0.0202
13,ACGCCAAC,0.0788
14,ACGGGATG,0.00155
15,ACATCATG,-0.0397
16,AGATAAGA,-0.0149
17,AGTAGAAC,-0.0714
18,CCCCGATA,0.143
19,ATGTTTTC,-0.0688
20,CTTACCCC,0.197
